According to PubChem BioAssay AID1345083 (National Center for Advancing Translational Sciences (NCATS), 2018):
The campaign covered roughly 94,000 compounds. About 6,200 (6.6%) were called active. Inconclusive results, whose numbers are uncertain, are shown with a selection of clear calls. Calls follow the shape of the dose curve; as a rule, active = well fitted inhibition curve with a large enough effect; inconclusive = small, poorly fitted or top-dose-only effect; inactive = flat fitted curve, though single readings scatter. Potencies of inconclusive entries are doubtful fits and often do not repeat.

experiment: Cytotoxic Profiling in HEK 293 Cell Line of Diverse Libraries Using Quantitative High-Throughput Screening; conditions: HEK 293 viability, ATP luminescence (CellTiter-Glo), 48-72 h; series mostly up to 115 µM; also: nearly all actives have a fitted effect of over 60% in size
How it was run: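 Cytotoxicity was scored by loss of ATP-coupled luminescence (CellTiter-Glo) in HEK 293 cells. Compound treatment ran 48 or 72 hr at 37 degree Celsius, 5% CO2, 95% humidity.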
Potency is read from the fitted curve at half-maximal effect; tags tell the direction and shape of the fitted curve.

SMILES	Potency
Cc1cccc(C(=O)NCCc2noc(C3CC3)n2)c1	inactive
O=C1CCCN1CCCN1C(=O)[C@@H]2C[C@@H](O)CN2C2(CN(Cc3cccc(OC(F)(F)F)c3)C2)C1=O	inactive
CC(=O)N1CC2(CCCN2CC2CC2)Cc2ccccc21 (stereo not drawn)	inactive
CN1c2cc(C(=O)Nc3cccc(C#N)c3)ccc2C(=O)N2CCCCC21 (stereo not drawn)	inconclusive: 39.8 µM [inhibitor, partial curve, poor fit]
O=[S+]([O-])(Nc1ccccc1)c1ccc2c(c1)OCCN(Cc1cccs1)C2	inconclusive: 89.1 µM [inhibitor, partial curve, poor fit]
COc1ccc(NC(=O)C2CCCN(c3ccnc4ccnn34)C2)cc1 (stereo not drawn)	inconclusive: 50.1 µM [inhibitor, partial curve, poor fit]
C=C(C)C(C)(C)C(=O)N1CCCC(N2CCN(c3ccccc3OC)CC2)C1 (stereo not drawn)	inconclusive: 89.1 µM [inhibitor, single point]
CCN(CC)C(=O)N1CC(Oc2ccc(-c3noc(COC)n3)cc2)C1	inconclusive: 10 µM [inhibitor, full curve, poor fit]
Cc1ccc(CN2CCC(CNc3ccncn3)CC2)o1	inactive
O=C(NCCCN1CCCC1=O)c1csc(N2CCN(c3ccc(F)cc3)CC2)n1	inconclusive: 44.7 µM [inhibitor, partial curve, poor fit]
Cn1cc(-c2ccc(Cl)cc2)c2nc(CNc3ccccc3)cn2c1=O	inconclusive: 100 µM [inhibitor, partial curve, poor fit]
O[C@H]1CC[C@@H](Cc2cc(-c3ccccc3)on2)O[C@@H]1CNCc1ccccc1	inconclusive: 100 µM [inhibitor, partial curve, poor fit]
Cc1c(Cn2ccnc2-c2cc(C#CCO)cs2)oc2ccccc12	inconclusive: 44.7 µM [inhibitor, partial curve, poor fit]
CC(C)CNc1ccc2c(n1)C(C)(C(=O)NCc1cnccn1)CN(Cc1ccccc1)C2 (stereo not drawn)	inconclusive: 79.4 µM [inhibitor, partial curve, poor fit]
c1ccc(CN(Cc2ccccn2)[C@H]2C[C@H]3CCOC[C@@]3(c3ccccc3)C2)cc1	active: 50.1 µM
COc1ccccc1-c1cc(C(=O)Nc2ccc(Cl)cc2)c2cnn(C)c2n1	active: 22.4 µM
CN1CCCC(c2n[nH]c(=O)n2-c2ccc3c(c2)OCO3)C1 (stereo not drawn)	inactive
COc1cccc2c1OCC(CNC(=O)c1sc(C)nc1C)C2 (stereo not drawn)	inconclusive: 56.2 µM [inhibitor, partial curve, poor fit]
CCn1c(=O)c2ccnn2c2ccc(C(=O)NCCCOC(C)C)cc21	inconclusive: 89.1 µM [inhibitor, single point]
Cc1cc(Cl)ccc1-c1ccccc1C=O	inconclusive: 100 µM [inhibitor, partial curve]
O=C(CC1CCCCN(Cc2ccccc2)C1=O)NCc1ccc(F)cc1F (stereo not drawn)	inconclusive: 56.2 µM [inhibitor, partial curve, poor fit]
Fc1ccc(OC2CNC2)cc1	inactive
CCC1(N2CCN(S(=O)(=O)c3ccc4c(c3)CCCC4)CC2)CCN(C(=O)NC)C1 (stereo not drawn)	inconclusive: 79.4 µM [inhibitor, partial curve]

SMILES	Potency
O=C(c1nc2sccn2c1-c1ccccc1)N1CCCCC1	inactive
N#Cc1ccccc1S(=O)(=O)N[C@H]1CO[C@H]2[C@@H]1OC[C@@H]2n1nnnc1Oc1ccccc1	inconclusive: 50.1 µM [inhibitor, partial curve, poor fit]
CN(C)[S+](=O)([O-])c1ccc2c(c1)OCCN(Cc1ccccc1Cl)C2	inconclusive: 79.4 µM [inhibitor, partial curve, poor fit]
CC1Oc2ccc(NC(=O)c3ccccc3F)cc2CN(Cc2ccc(Cl)cc2)C1=O (stereo not drawn)	inconclusive: 89.1 µM [inhibitor, partial curve, poor fit]
O=C(c1ccccc1)N1CCC2(CC1)CCN(Cc1cccs1)c1ccccc1O2	inconclusive: 50.1 µM [inhibitor, partial curve, poor fit]
C#CCN(C)Cc1nc(C2(O)CCN(C3CCC3)CC2)cs1	inconclusive: 126 µM [inhibitor, single point]
CNC(=O)c1cc(C2CC2)nc2onc(C3CCN(C(=O)c4ccc(Cl)nc4)CC3)c12	inactive
COc1ccccc1C(=O)NCCn1ccn2nc(-c3ccc(C)cc3C)cc2c1=O	inconclusive: 50.1 µM [inhibitor, partial curve, poor fit]
CCCC(=O)NC1CN(c2ccnc3ccnn23)C1	inactive
O=C(c1ccsc1)N1CCC2(CC1)CN(C1CCC1)CC2CO (stereo not drawn)	inconclusive: 89.1 µM [inhibitor, partial curve, poor fit]
CC(C)NC(=O)NC[C@H]1O[C@@H](CC(=O)N2CCc3ccccc32)[C@H](O)[C@@H]1O	inactive
O=C(c1nc(-c2ccc(Cl)nc2)c2ccccn12)N1CCCC1	inconclusive: 79.4 µM [inhibitor, partial curve, poor fit]
O=C(NCCN1CCOCC1)c1cc(-c2ccc(Cl)cc2Cl)c2nncn2n1	inconclusive: 39.8 µM [inhibitor, partial curve]
CCc1ccc(S(=O)(=O)N2CCC(OC3CCN(Cc4ccccc4)CC3)CC2)cc1	inconclusive: 70.8 µM [inhibitor, partial curve, poor fit]
Cc1cccc(C)c1-c1nnc2ccc(C(=O)NCCc3ccccc3F)cn12	inconclusive: 89.1 µM [inhibitor, single point]
Cc1noc2c(NC3CCN(C)CC3)cc(-c3cccc(C(F)(F)F)c3)nc12	active: 39.8 µM
CC(=O)N1CCN(C(=O)c2ccc3nc(-c4ccccn4)oc3c2)CC1	inactive
CCOC(=O)C1CCCN(C(=O)C2CCN(c3ccnc4ccnn34)CC2)C1 (stereo not drawn)	inconclusive: 100 µM [inhibitor, partial curve, poor fit]
Cc1nc2cnccn2c1C(=O)NCC(F)(F)F	inactive
Cc1ccc(S(=O)(=O)N2CCC(CCC(=O)NC3CC3)CC2)cc1	inactive
CC(C)c1ccc(C(C)NC(=O)CN2CCCc3nc(-c4ccccc4)ncc3C2=O)cc1 (stereo not drawn)	inconclusive: 89.1 µM [inhibitor, single point]
COc1cc2c(cc1-c1c(-c3ccccc3)ncn1CCCO)CCC2	inconclusive: 56.2 µM [inhibitor, partial curve, poor fit]
CSc1ccc(-c2cccc(C(=O)NCCN[S+](=O)([O-])c3ccc(C)cc3)c2)cc1	active: 39.8 µM

SMILES	Potency
COc1ccccc1CN1CC[C@H](CNC(C)=O)[C@H](N(C)C)C1	inactive
CCCCS(=O)(=O)Nc1ccc([C@H]2OCC(=O)N(Cc3ccc(OC)cc3)[C@@H]2CO)cc1	inconclusive: 39.8 µM [inhibitor, partial curve, poor fit]
COc1cccc(CNC(=O)c2ccc3nnc(-c4ccccc4OC)n3c2)c1	inactive
COC(=O)CNC(=O)c1ccc2nnc(-c3cccc(OC(F)(F)F)c3)n2c1	inactive
CCNC(=O)c1c(C)oc2c1CN(Cc1sccc1C)CC2	inconclusive: 44.7 µM [inhibitor, full curve, poor fit]
COc1ccc(-c2c(C(=O)Nc3cccc(Cl)c3)nc3sccn23)cc1	active: 63.1 µM
CN(C)c1ccc(CN(C)C2CCc3ccccc32)cc1 (stereo not drawn)	inconclusive: 100 µM [inhibitor, partial curve]
CCCN1CCCC12Cc1ccccc1CN(C(=O)C(C)C)C2 (stereo not drawn)	active: 89.1 µM
O=C(NCCc1ccccc1F)c1ccc2nc(-c3cccnc3)oc2c1	inactive
Cc1ccc(-c2noc([C@@H]3Cc4nc[nH]c4CN3Cc3ccccc3)n2)cc1	active: 100 µM
O=C(Nc1cc(-c2ccccn2)nn1-c1ccccc1)c1cccc(Cl)c1	inconclusive: 50.1 µM [inhibitor, partial curve, poor fit]
CC(=O)Nc1ccc(CN2CCc3nc(C(C)C)nc(-c4ccc(Cl)cc4)c3CC2)cc1	inconclusive: 79.4 µM [inhibitor, single point]
COc1cccc(CNC(=O)CCC2CCN(C(=O)c3ccccc3)CC2)c1	inconclusive: 89.1 µM [inhibitor, single point]
O=c1cc(-c2ccncc2)oc2c(-c3ccc(CO)cc3)nccc12	inconclusive: 112 µM [inhibitor, partial curve, poor fit]
c1ccc(CO[C@H]2COCCN(c3nc4ccccc4o3)C2)cc1	inactive
O=C(c1ccc(Cl)nc1)N1CCc2nc(C3CC3)nc(-c3ccc(Cl)cc3)c2C1	inconclusive: 89.1 µM [inhibitor, single point]
COc1ccccc1-c1cc(C(=O)NCc2cnn(C)c2)c2c(c1)N(C)CCO2	inactive
Cn1cc(CN2CCCC23CCN(c2ccc(C(F)(F)F)cn2)CC3)cc1C#N	inconclusive: 50.1 µM [inhibitor, partial curve, poor fit]
COc1cccc(-c2cc3c(=O)n(CCNC(=O)c4cccc(Cl)c4)ccn3n2)c1	inconclusive: 35.5 µM [inhibitor, full curve]
CC#CCn1cc2c3c(cccc31)[C@H](CC(C)C)N[C@H](C(=O)NC1CCCC1)C2	active: 44.7 µM
O=C(Cc1ccc2c(c1)OCO2)N(Cc1ccncc1)Cc1cccc(OCCc2ccc(F)cc2)c1	active: 39.8 µM
Cc1ccc(-c2ccccc2CN2CCN(C(=O)Nc3ccc(Cl)cc3)CC2)cc1Cl	inconclusive: 35.5 µM [inhibitor, full curve, poor fit]
